At least one read-out could not be matched to a standard name with certainty. Starred links: 1 amine or outer side, 2 acyl side, 3 side chain; linkers in the order of their positions; H or OH if unused. Positions of bridges follow the written chain, without caps; N, C: chain ends. Residues, ends and D or L forms follow the SMILES beside them. *: point of attachment. C20 diacid = O=C(O)CCCCCCCCCCCCCCCCCCC(=O)*; γGlu = O=C(O)[C@H](CCC(=O)[*:2])N[*:1]
Assay: Assay (III) ThT fibrillation assay for physical stability
Type: physicochemical
Conditions: ThT fibrillation assay
Outline: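 Freshly prepared formulations, pH-adjusted, with 1 μM ThT; four or eight replicates incubated at 37 °C under 960 rpm orbital shaking. Fluorescence (ex 444/em 485 nm) read every 20 min; […]. Peptide concentration measured by RP-HPLC before and after the run.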

Row | Structure (SMILES) | ThT pH 4.0 recovery (%)
1 | CC[C@H](C)[C@H](NC(=O)[C@@H]1CCCN1C(=O)CNC(=O)[C@H](Cc1ccccc1)NC(=O)[C@H](CC(N)=O)NC(=O)[C@H](CCC(N)=O)NC(=O)[C@H](CO)NC(=O)[C@H](CO)NC(=O)[C@H](Cc1c[nH]cn1)NC(=O)[C@H](Cc1c[nH]cn1)NC(=O)[C@H](CC(C)C)NC(=O)[C@H](Cc1ccccc1)NC(=O)[C@H](CCC(=O)O)NC(=O)[C@H](C)NC(=O)[C@H](CC(C)C)NC(=O)[C@H](CCCNC(=N)N)NC(=O)[C@H](CCC(N)=O)NC(=O)[C@@H](NC(=O)[C@H](C)NC(=O)[C@@H]1CSSC[C@H](NC(=O)[C@H](CCCCN)NC(=O)[C@H](CCC(=O)O)NC(=O)CC[C@H](NC(=O)CCCCCCCCCCCCCCCCCCC(=O)O)C(=O)O)C(=O)N[C@@H](CC(N)=O)C(=O)N[C@@H]([C@@H](C)O)C(=O)N[C@@H](C)C(=O)N[C@@H]([C@@H](C)O)C(=O)N1)[C@@H](C)O)C(=O)N[C@@H](CC(C)C)C(=O)N1CCC[C@H]1C(=O)N1CCC[C@H]1C(=O)N[C@H](C(=O)N[C@@H](CC(N)=O)C(=O)N[C@H](C(=O)NCC(=O)N[C@@H](CO)C(=O)N[C@@H](Cc1c[nH]cn1)C(=O)N[C@H](C(=O)N[C@@H](Cc1ccc(O)cc1)C(N)=O)[C@@H](C)O)C(C)C)[C@@H](C)O [Example 129, N-alpha-[(S)-4-Carboxy-4-(19-carboxynonadecanoylamino)butyryl]-Glu-[Glu14,His17,Gln21,His35]-pramlintide] ({C20 diacid-γGlu}-EKCNTATCATQRLAEFLHHSSQNFGPILPPTNVGSHTY-NH2; disulfide 3-8 (inferred); C-terminus assumed) | 0
2 | CC[C@H](C)[C@H](NC(=O)[C@@H]1CCCN1C(=O)CNC(=O)[C@H](Cc1ccccc1)NC(=O)[C@H](CC(N)=O)NC(=O)[C@H](CC(N)=O)NC(=O)[C@H](CO)NC(=O)[C@H](CO)NC(=O)[C@H](Cc1c[nH]cn1)NC(=O)[C@@H](NC(=O)[C@H](CC(C)C)NC(=O)[C@H](Cc1ccccc1)NC(=O)[C@H](CC(N)=O)NC(=O)[C@H](C)NC(=O)[C@H](CC(C)C)NC(=O)[C@H](CCCNC(=N)N)NC(=O)[C@H](CCC(N)=O)NC(=O)[C@@H](NC(=O)[C@H](C)NC(=O)[C@@H]1CSSC[C@H](NC(=O)[C@H](CCC(=O)O)NC(=O)[C@H](CCCNC(=N)N)NC(=O)[C@H](CCC(=O)O)NC(=O)CC[C@H](NC(=O)CCCCCCCCCCCCCCCCCCC(=O)O)C(=O)O)C(=O)N[C@@H](CC(N)=O)C(=O)N[C@@H]([C@@H](C)O)C(=O)N[C@@H](C)C(=O)N[C@@H]([C@@H](C)O)C(=O)N1)[C@@H](C)O)C(C)C)C(=O)N[C@@H](CC(C)C)C(=O)N1CCC[C@H]1C(=O)N1CCC[C@H]1C(=O)N[C@H](C(=O)N[C@@H](CC(N)=O)C(=O)N[C@H](C(=O)NCC(=O)N[C@@H](CO)C(=O)N[C@@H](CC(N)=O)C(=O)N[C@H](C(=O)N1CCC[C@H]1C(N)=O)[C@@H](C)O)C(C)C)[C@@H](C)O [Example 122, N-alpha-[(S)-4-Carboxy-4-(19-carboxynonadecanoylamino)butyryl]-Glu-Arg-[Glu1,Pro37]-pramlintide] ({C20 diacid-γGlu}-ERECNTATCATQRLANFLVHSSNNFGPILPPTNVGSNTP-NH2; disulfide 4-9 (inferred); C-terminus assumed) | 2.6

From patent US8722849B2, “Polypeptides” (Novo Nordisk A/S, priority 2011, dated 2014)
